This is one part of the list. Many values rest on one well or one pass, so single values are uncertain.
The compounds below were run on COLO829 (assay: cell count relative to DMSO control; melanoma cells; higher = more viable cells). Conditions: library dose: low library concentration; 72 h.
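Further: cell number obtained by counting DAPI-stained nuclei in high-throughput microscope images with image analysis software, screen run in 1,536-well plates.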

| Compound | cell count [%] |
| --- | --- |
| COC(=O)c1sccc1S(=O)(=O)Nc1ccc(Nc2ccccc2)cc1OC + Oc1nc(-c2ccc(C(F)(F)F)cc2)nc2c1CSCC2 [XAV939] (first compound 1 µM, partner dose 2 µM) | 92.6 |
| O=C1NC(=O)/C(=C/c2ccc(-c3ccc(F)cc3O)o2)S1 + COc1cc(N2CCC(N3CCN(C)CC3)CC2)ccc1Nc1ncc(Cl)c(Nc2ccccc2S(=O)(=O)C(C)C)n1 [NVP-TAE684] (first compound 1 µM, partner dose 0.08 µM) | 93.3 |
| O=S(=O)(c1ccccc1)N(CC(F)(F)F)c1ccc(C(O)(C(F)(F)F)C(F)(F)F)cc1 + CCCCCCCCCCCC1=C(O)C(=O)C=C(O)C1=O [Embelin] (first compound 1.4 µM, partner dose 1.2 µM) | 96.9 |
| O=C(O)C(=O)Nc1sc2c(c1C(=O)O)CCNC2 + O=C1NC(=O)/C(=C/c2ccc(-c3ccc(F)cc3O)o2)S1 [AS252424] (first compound 1.66667 µM, partner dose 1 µM) | 96.2 |
| Cc1cc([N+](=O)[O-])ccc1NS(=O)(=O)c1cc(Cl)ccc1Cl + CC(C)CCN1c2nc(Nc3cc(F)c(O)c(F)c3)ncc2N(C)C(=O)C1C [BID1870] (first compound 1 µM, partner dose 0.2 µM) | 109 |
| COc1ccc2c(c1)CCC1C2CCC2(C)C(NCCCCCCN3C(=O)C=CC3=O)CCC12 (stereo not given) + O=S(=O)(c1ccccc1)N(CC(F)(F)F)c1ccc(C(O)(C(F)(F)F)C(F)(F)F)cc1 [T0901317] (first compound 0.4 µM, partner dose 1.4 µM) | 89.9 |
| Oc1nc(-c2ccc(C(F)(F)F)cc2)nc2c1CSCC2 + CC(C)CCN1c2nc(Nc3cc(F)c(O)c(F)c3)ncc2N(C)C(=O)C1C [BID1870] (first compound 2 µM, partner dose 0.2 µM) | 107 |
| COc1cc(N2CCC(N3CCN(C)CC3)CC2)ccc1Nc1ncc(Cl)c(Nc2ccccc2S(=O)(=O)C(C)C)n1 + O=c1cc(-c2cccc3c2Sc2ccccc2S3)oc(N2CCOCC2)c1 [KU55933] (first compound 0.08 µM, partner dose 1 µM) | 85 |
| N#Cc1c(O)c2c(-c3ccc(-c4ccccc4O)cc3)csc2[nH]c1=O + CCCCCCCCCCCC1=C(O)C(=O)C=C(O)C1=O [Embelin] (first compound 2 µM, partner dose 1.2 µM) | 76.4 |
| c1cc(-c2cnn3cc(-c4ccc(OCCN5CCCCC5)cc4)cnc23)ccn1 [Dorsomorphin] + O=c1cc(-c2cccc3c2Sc2ccccc2S3)oc(N2CCOCC2)c1 [KU55933] (first compound 0.4 µM, partner dose 1 µM) | 92.9 |
| COc1ccc(-c2ccc3c(N4CCOCC4)nc(N4C[C@@H](C)O[C@@H](C)C4)nc3n2)cc1CO + CCN(CC)CCCCNc1ncc2cc(-c3cc(OC)cc(OC)c3)c(NC(=O)NC(C)(C)C)nc2n1 [PD173074] (first compound 0.02 µM, partner dose 0.1 µM) | 66.3 |
| N#Cc1c(O)c2c(-c3ccc(-c4ccccc4O)cc3)csc2[nH]c1=O + COc1ccc2c(c1)CCC1C2CCC2(C)C(NCCCCCCN3C(=O)C=CC3=O)CCC12 [U73122] (first compound 2 µM, partner dose 0.4 µM) | 103 |

The compounds below were run on G361 in the same assay as above. Conditions: library dose: low library concentration; 72 h.

| Compound | cell count [%] |
| --- | --- |
| O=S(=O)(c1ccccc1)N(CC(F)(F)F)c1ccc(C(O)(C(F)(F)F)C(F)(F)F)cc1 + CC(C)CCN1c2nc(Nc3cc(F)c(O)c(F)c3)ncc2N(C)C(=O)C1C [BID1870] (first compound 1.4 µM, partner dose 0.2 µM) | 85.1 |
| N#Cc1c(O)c2c(-c3ccc(-c4ccccc4O)cc3)csc2[nH]c1=O + Oc1nc(-c2ccc(C(F)(F)F)cc2)nc2c1CSCC2 [XAV939] (first compound 2 µM, partner dose 2 µM) | 98.7 |
| N#Cc1c(O)c2c(-c3ccc(-c4ccccc4O)cc3)csc2[nH]c1=O + CCN(CC)CCCCNc1ncc2cc(-c3cc(OC)cc(OC)c3)c(NC(=O)NC(C)(C)C)nc2n1 [PD173074] (first compound 2 µM, partner dose 0.1 µM) | 99.8 |
| COc1ccc2c(c1)CCC1C2CCC2(C)C(NCCCCCCN3C(=O)C=CC3=O)CCC12 (stereo not given) + O=C1NC(=O)/C(=C/c2ccc(-c3ccc(F)cc3O)o2)S1 [AS252424] (first compound 0.4 µM, partner dose 1 µM) | 88.4 |
| COc1ccc(COc2ccc(Cc3cnc(N)nc3N)cc2OC)cc1 + Cn1cc(/C=C2\C(=O)Nc3cccnc32)c2ccccc21 [GW441756] (first compound 1 µM, partner dose 0.4 µM) | 109 |
| Oc1cc(-c2nc(-c3ccccc3)[nH]c2-c2ccncc2)ccc1Cl + CCCCCCCCCCCC1=C(O)C(=O)C=C(O)C1=O [Embelin] (first compound 0.2 µM, partner dose 1.2 µM) | 111 |
| O=C(O)C(=O)Nc1sc2c(c1C(=O)O)CCNC2 + Cn1cc(/C=C2\C(=O)Nc3cccnc32)c2ccccc21 [GW441756] (first compound 1.66667 µM, partner dose 0.4 µM) | 84.4 |
| O=C(O)C(=O)Nc1sc2c(c1C(=O)O)CCNC2 + CCCCCCCCCCCC1=C(O)C(=O)C=C(O)C1=O [Embelin] (first compound 1.66667 µM, partner dose 1.2 µM) | 105 |
| COc1ccc2c(c1)CCC1C2CCC2(C)C(NCCCCCCN3C(=O)C=CC3=O)CCC12 (stereo not given) + CCN(CC)CCCCNc1ncc2cc(-c3cc(OC)cc(OC)c3)c(NC(=O)NC(C)(C)C)nc2n1 [PD173074] (first compound 0.4 µM, partner dose 0.1 µM) | 79.2 |
| COC(=O)c1sccc1S(=O)(=O)Nc1ccc(Nc2ccccc2)cc1OC + COc1cc2ncnc(Nc3ccc(Oc4ccccc4)cc3)c2cc1OC [SrcI1] (first compound 1 µM, partner dose 2 µM) | 87.5 |
| CCN(CC)CCCCNc1ncc2cc(-c3cc(OC)cc(OC)c3)c(NC(=O)NC(C)(C)C)nc2n1 + COc1ccc(COc2ccc(Cc3cnc(N)nc3N)cc2OC)cc1 [GW2580] (first compound 0.1 µM, partner dose 1 µM) | 110 |
| COc1cc(N2CCC(N3CCN(C)CC3)CC2)ccc1Nc1ncc(Cl)c(Nc2ccccc2S(=O)(=O)C(C)C)n1 + CC(C)CCN1c2nc(Nc3cc(F)c(O)c(F)c3)ncc2N(C)C(=O)C1C [BID1870] (first compound 0.08 µM, partner dose 0.2 µM) | 95.6 |
| c1cc(-c2cnn3cc(-c4ccc(OCCN5CCCCC5)cc4)cnc23)ccn1 [Dorsomorphin] + Cn1cc(/C=C2\C(=O)Nc3cccnc32)c2ccccc21 [GW441756] (first compound 0.4 µM, partner dose 0.4 µM) | 83.6 |
| Cn1cc(/C=C2\C(=O)Nc3cccnc32)c2ccccc21 + CCCCCCCCCCCC1=C(O)C(=O)C=C(O)C1=O [Embelin] (first compound 0.4 µM, partner dose 1.2 µM) | 97.6 |
| Oc1nc(-c2ccc(C(F)(F)F)cc2)nc2c1CSCC2 + Cn1cc(/C=C2\C(=O)Nc3cccnc32)c2ccccc21 [GW441756] (first compound 2 µM, partner dose 0.4 µM) | 92.6 |
| COc1ccc(-c2ccc3c(N4CCOCC4)nc(N4C[C@@H](C)O[C@@H](C)C4)nc3n2)cc1CO + Cc1cc([N+](=O)[O-])ccc1NS(=O)(=O)c1cc(Cl)ccc1Cl [FH535] (first compound 0.02 µM, partner dose 1 µM) | 98.1 |
| COc1cc(N2CCC(N3CCN(C)CC3)CC2)ccc1Nc1ncc(Cl)c(Nc2ccccc2S(=O)(=O)C(C)C)n1 + Cn1cc(/C=C2\C(=O)Nc3cccnc32)c2ccccc21 [GW441756] (first compound 0.08 µM, partner dose 0.4 µM) | 89.5 |
| CCN(CC)CCCCNc1ncc2cc(-c3cc(OC)cc(OC)c3)c(NC(=O)NC(C)(C)C)nc2n1 + Cn1cc(/C=C2\C(=O)Nc3cccnc32)c2ccccc21 [GW441756] (first compound 0.1 µM, partner dose 0.4 µM) | 97 |
| N#Cc1c(O)c2c(-c3ccc(-c4ccccc4O)cc3)csc2[nH]c1=O + O=c1cc(-c2cccc3c2Sc2ccccc2S3)oc(N2CCOCC2)c1 [KU55933] (first compound 2 µM, partner dose 1 µM) | 85.5 |
| COc1ccc(COc2ccc(Cc3cnc(N)nc3N)cc2OC)cc1 + CC(C)CCN1c2nc(Nc3cc(F)c(O)c(F)c3)ncc2N(C)C(=O)C1C [BID1870] (first compound 1 µM, partner dose 0.2 µM) | 104 |
| COc1cc2ncnc(Nc3ccc(Oc4ccccc4)cc3)c2cc1OC + c1cc(-c2cnn3cc(-c4ccc(OCCN5CCCCC5)cc4)cnc23)ccn1 [Dorsomorphin] (first compound 2 µM, partner dose 0.4 µM) | 97.6 |
| O=C(O)C(=O)Nc1sc2c(c1C(=O)O)CCNC2 + c1cc(-c2cnn3cc(-c4ccc(OCCN5CCCCC5)cc4)cnc23)ccn1 [Dorsomorphin] (first compound 1.66667 µM, partner dose 0.4 µM) | 96.5 |
| COC(=O)c1sccc1S(=O)(=O)Nc1ccc(Nc2ccccc2)cc1OC + Oc1nc(-c2ccc(C(F)(F)F)cc2)nc2c1CSCC2 [XAV939] (first compound 1 µM, partner dose 2 µM) | 90.4 |

Source: the supplement of paper PMC4604168 (melanoma cell lines)
